This is one part of the list. The full chains were built here from the parent and the listed change. Values near 0.05 are background.
B1: TEV protease; numbered along this chain (parent)
chain: MGESLFKGPRDYNPISSSICHLTNESDGHTTSLYGIGFGPFIITNKHLFRRNNGTLVVQSLHGVFKVKDTTTLQQHLVDGRDMIIIRMPKDFPPFPQKLKFREPQREERICLVTTNFQTKSMSSMVSDTSCTFPSGDGIFWKHWIQTKDGQCGSPLVSTRDGFIVGIHSASNFTNTNNYFTSVPKNFMELLTNQEAQQWVSGWRLNADSVLWGGHKVFMVKPEEPFQPVKEATQL

Variants of: B1
Experiment: raw area under fraction-flipped curve 0-4 h after induction (AUC4h, not background-subtracted), DNA-recorder readout of cleavage of the substrate (dimensionless); higher = more cleavage of the substrate by the protease variant
Conditions: temperature: 34 °C; time window: 0-4 h after rhamnose induction
Procedure: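 In vivo DNA recorder in E. coli TOP10(DE3) ΔrhaA at 34 °C. Each TEVp single-site mutant (parent TEVp 0) is paired with a single-site variant of the 7-mer TEVs (canonical ENLYFQ|S). The substrate sits between flexible linkers in a Bxb1-sfGFP-TEVs-SsrA fusion, so cleavage stabilises Bxb1 and speeds flipping of a recombination array, read by NGS. The value is the raw area under the fraction-flipped curve over 0-4 h after rhamnose induction (AUC4h), with ≥20 reads per time point. It is not background-subtracted; inactive controls average about 0.047.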
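Note: Bxb1 expression induced with 0.2% (w/v) L-rhamnose at OD600 near 0.5, cultures sampled hourly, flipped fraction per protease–substrate barcode pair counted by paired-end Illumina sequencing.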

Variant	area with substrate ENAYFQS	area with substrate ENCYFQS	area with substrate ENDYFQS	area with substrate ENEYFQS	area with substrate ENFYFQS	area with substrate ENGYFQS	area with substrate ENHYFQS	area with substrate ENIYFQS	area with substrate ENKYFQS	area with substrate ENNYFQS	area with substrate ENPYFQS	area with substrate ENQYFQS	area with substrate ENRYFQS	area with substrate ENSYFQS	area with substrate ENTYFQS	area with substrate ENVYFQS	area with substrate ENWYFQS	area with substrate ENYYFQS	area with substrate ENMYFQS
MGESLFKGPDDYNPISSSICHLTNESDGHTTSLYGIGFGPFIITNKHLFRRNNGTLVVQSLHGVFKVKDTTTLQQHLVDGRDMIIIRMPKDFPPFPQKLKFREPQREERICLVTTNFQTKSMSSMVSDTSCTFPSGDGIFWKHWIQTKDGQCGSPLVSTRDGFIVGIHSASNFTNTNNYFTSVPKNFMELLTNQEAQQWVSGWRLNADSVLWGGHKVFMVKPEEPFQPVKEATQL [R10D]	0.0603	0.0603	0.0732	0.0487	0.0718	0.0689	0.0702	0.105	0.0543	0.0639	0.0613	0.0547	0.0613	0.0603	0.057	0.0824	0.0045	0.0569	
MGESLFKGPWDYNPISSSICHLTNESDGHTTSLYGIGFGPFIITNKHLFRRNNGTLVVQSLHGVFKVKDTTTLQQHLVDGRDMIIIRMPKDFPPFPQKLKFREPQREERICLVTTNFQTKSMSSMVSDTSCTFPSGDGIFWKHWIQTKDGQCGSPLVSTRDGFIVGIHSASNFTNTNNYFTSVPKNFMELLTNQEAQQWVSGWRLNADSVLWGGHKVFMVKPEEPFQPVKEATQL [R10W]	0.0637	0.0756	0.0591	0.0538	0.0616	0.0605	0.0564	0.148	0.0653		0.0615	0.0569	0.0649	0.0664		0.0853	0.046		
MGESLFKGPRPYNPISSSICHLTNESDGHTTSLYGIGFGPFIITNKHLFRRNNGTLVVQSLHGVFKVKDTTTLQQHLVDGRDMIIIRMPKDFPPFPQKLKFREPQREERICLVTTNFQTKSMSSMVSDTSCTFPSGDGIFWKHWIQTKDGQCGSPLVSTRDGFIVGIHSASNFTNTNNYFTSVPKNFMELLTNQEAQQWVSGWRLNADSVLWGGHKVFMVKPEEPFQPVKEATQL [D11P]	0.0642	0.0608	0.0666	0.0673	0.064	0.0634	0.068		0.0517	0.0766	0.0628	0.0712		0.0545	0.0672	0.0559		0.0543	0.0642
MGESLFKGPRDCNPISSSICHLTNESDGHTTSLYGIGFGPFIITNKHLFRRNNGTLVVQSLHGVFKVKDTTTLQQHLVDGRDMIIIRMPKDFPPFPQKLKFREPQREERICLVTTNFQTKSMSSMVSDTSCTFPSGDGIFWKHWIQTKDGQCGSPLVSTRDGFIVGIHSASNFTNTNNYFTSVPKNFMELLTNQEAQQWVSGWRLNADSVLWGGHKVFMVKPEEPFQPVKEATQL [Y12C]	0.0494	0.0608	0.0765	0.0668	0.0671	0.0553		0.115	0.0765	0.0601	0.0663	0.0629	0.0564	0.0634	0.0717	0.0793	0.0576		0.0798

Source: the supplement of paper PMC12217912
